Test results as given in PMC4336329 (PLoS ONE, 2015).
Out of some 310,000 compounds screened, about 2,200 (0.71%) showed an effect of 50% or more. The effect is printed as a negative number. The list shows a part of the results.

Target: human ether-à-go-go-related gene (hERG) potassium channel (human, UniProt Q12809)
Test: primary screen, population patch clamp on CHO cells stably expressing hERG

human ether-à-go-go-related gene (hERG) potassium channel, sequence (Q12809 whole entry, looked up): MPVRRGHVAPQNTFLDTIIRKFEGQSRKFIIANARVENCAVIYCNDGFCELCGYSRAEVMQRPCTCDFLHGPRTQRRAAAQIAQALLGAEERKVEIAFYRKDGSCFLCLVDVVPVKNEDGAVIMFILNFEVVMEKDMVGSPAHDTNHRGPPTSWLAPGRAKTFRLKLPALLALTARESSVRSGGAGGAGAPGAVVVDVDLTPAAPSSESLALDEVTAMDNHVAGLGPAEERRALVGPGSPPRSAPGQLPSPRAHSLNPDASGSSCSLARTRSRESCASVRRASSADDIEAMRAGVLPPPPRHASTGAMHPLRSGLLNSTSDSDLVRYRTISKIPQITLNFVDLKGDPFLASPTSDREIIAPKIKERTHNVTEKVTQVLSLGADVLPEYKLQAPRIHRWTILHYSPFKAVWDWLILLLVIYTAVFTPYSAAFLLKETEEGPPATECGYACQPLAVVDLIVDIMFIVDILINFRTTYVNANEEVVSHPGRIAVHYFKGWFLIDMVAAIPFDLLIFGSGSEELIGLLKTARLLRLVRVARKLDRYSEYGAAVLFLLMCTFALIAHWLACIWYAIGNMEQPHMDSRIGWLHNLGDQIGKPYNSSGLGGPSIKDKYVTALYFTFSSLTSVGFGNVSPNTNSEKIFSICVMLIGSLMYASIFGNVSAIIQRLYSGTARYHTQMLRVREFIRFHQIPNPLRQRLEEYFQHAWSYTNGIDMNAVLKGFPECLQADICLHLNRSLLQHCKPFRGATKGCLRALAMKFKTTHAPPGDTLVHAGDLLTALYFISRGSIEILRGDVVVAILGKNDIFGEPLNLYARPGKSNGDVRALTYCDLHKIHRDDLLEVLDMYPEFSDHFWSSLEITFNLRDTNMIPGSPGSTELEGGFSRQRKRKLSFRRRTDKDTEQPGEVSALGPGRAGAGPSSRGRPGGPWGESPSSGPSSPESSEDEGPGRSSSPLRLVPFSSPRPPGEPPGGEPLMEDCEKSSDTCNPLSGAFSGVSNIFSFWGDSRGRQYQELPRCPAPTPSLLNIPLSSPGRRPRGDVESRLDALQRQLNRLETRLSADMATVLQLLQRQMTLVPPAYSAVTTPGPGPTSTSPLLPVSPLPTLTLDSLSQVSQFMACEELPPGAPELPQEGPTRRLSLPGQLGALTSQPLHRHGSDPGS

Structure (SMILES)	hERG current change (%, negative = inhibition) at 1uM
CCOC(=O)C(O)(CCC(O)(C(=O)OCC)C(=O)OCC)C(=O)OCC	7.97%
Cc1cccc(-n2ncc3c2CCCC3NC(=O)CCc2ccncc2)c1C (centres unmarked)	10.5%
Cc1ccc(S(=O)(=O)N2CCCCC2C(=O)N2CCN(c3ccccc3F)CC2)cc1 (centres unmarked)	13.1%
Cn1c(CCCNC(=O)c2ccccc2)nc2ccccc21	8.14%
O=C(CSc1nncs1)NCc1ccc(F)cc1	30.2%
CNC(=S)n1cnc(N)n1	10.6%
Cc1ccc(Nc2nc(-c3ccc(O)cc3O)cs2)nc1	11.1%
CCOC(=O)C(=CNc1ccc(O)c(C(=O)OC)c1)C(=O)OCC	11.9%
C=CCN1/C(=C(\C#N)C2=NS(=O)(=O)c3ccccc32)N(C)c2ccccc21	-5.66%
CC(=O)c1cccc(NC(=O)CCS(=O)(=O)c2cc3c(cc2C)NC(=O)CO3)c1	11.2%
CCN(C(=O)CCN1C(=O)/C(=C/c2ccccc2)SC1=S)C1CCS(=O)(=O)C1 (centres unmarked)	9.74%
Cc1cccc(C)c1NC(=O)CSc1nc2[nH]c(=O)cc(O)c2s1	4.15%
Cc1cc(C)[n+]2[nH]c(N)c(N=Nc3ccccc3)c2n1.[Cl-]	0.859%
Cc1ccc(C(C(=O)NCc2ccco2)N(Cc2ccco2)C(=O)CNC(=O)c2ccco2)cc1 (centres unmarked)	6.16%
OCCC1CN(C2CCSCC2)CCN1C1CCCC1 (centres unmarked)	2.45%
CN1CCN(C(=S)NC(=O)c2ccccc2Cl)CC1	12.8%
CSc1cccc(N2CC(C(=O)N(CC(C)C)c3c(N)n(Cc4ccccc4)c(=O)[nH]c3=O)CC2=O)c1 (centres unmarked)	-5.25%
CC(C)(C)c1nc(NCC2CCCO2)c2nnn(Cc3ccccc3)c2n1 (centres unmarked)	13.9%
CN(c1ccc(OCC(=O)OCC(=O)Nc2ccc(Br)cc2)cc1)S(=O)(=O)c1cccs1	13.8%
CCC(=O)Nc1ccc2c(c1)N(C(C)=O)c1ccccc1CC2	12%
C[C@H](NC(=O)C1CC(=O)N(c2ccc3c(c2)OCCO3)C1)C(=O)N1CCCCC1 (some centres unmarked)	14%
COc1ccc(CCNC(=O)CN2C(=O)C(=O)N(C3CCCC3)C2=O)cc1OC	3.16%

Structure (SMILES)	hERG current change (%, negative = inhibition) at 1uM
Cc1ccccc1N(CC(=O)NC(C)(C)C)C(=O)CCC(=O)Nc1nccs1	13%
CCOC(=O)COc1c(-c2ccc(OC)cc2)oc2ccccc2c1=O	9.81%
CCCSc1nsc(NC(=O)CC)n1	-1.88%
Cc1cc(C)nc(NC2=NCC(=O)N2CCc2c[nH]c3ccccc23)n1	8.81%
Cc1ccccc1OCC(=O)Nc1ccc([N+](=O)[O-])cc1	10.5%
O=C(Cc1ccccc1F)NCC1(N2CCOCC2)CCCCC1	2.75%
C#CCOCCOCCOCCNc1nc(N2CCN(C(=O)[C@H]([C@@H](C)CC)n3cc(CCC(=O)O)nn3)CC2)nc(N2CCN(C(=O)[C@H](C)n3cc(CCC[NH+]=C(N)N)nn3)CC2)n1.[Cl-]	12.9%
COc1ccc(NC(=O)CSc2nnc(-c3cc(C)[nH]n3)n2N)cc1OC	14.4%
CCOc1ccc(C(=O)Nc2ccc(S(=O)(=O)NCC3CCCO3)cc2)cc1OCC (centres unmarked)	7.55%
Cc1cc(NC(=O)CN2C(=O)NC(C)(CCc3ccccc3)C2=O)no1 (centres unmarked)	7.44%
COc1cc2cc(CN(CCc3cccc(C)c3)C(=S)NCCCN(C)C)c(=O)[nH]c2cc1OC	7.6%
O=C1OC(c2ccccc2)=C/C1=C\N1CCOCC1	7.49%
CCOC(=O)c1c(NCc2ccccc2)n[nH]c1C	4.96%
COc1cc2c(cc1OC)CN(C(=O)CC1CC3CCC1C3)CC2 (centres unmarked)	2.13%
O=C(NC1CCCCC1)C(c1ccccc1F)N(C(=O)c1csnn1)C1CCCC1 (centres unmarked)	-0.516%
CN(CCN1CCOCC1)Cc1nc(-c2ccc(Cl)cc2)no1	0.241%
Cc1ccc(S(=O)(=O)N2CCCCC2)cc1NC(=O)CCc1nc2ccccc2c(=O)[nH]1	1.86%
COc1ccccc1Sc1nc(-c2ccccn2)ncc1OC	16.6%
COc1cccc(CN(C)C(=O)c2cc(S(=O)(=O)NC3CCCCC3)ccc2C)c1OC	7.19%
COc1ccc(C(=O)Nc2ccc(C(=O)O)cc2NC(=O)c2ccc(OC)cc2)cc1	15.2%
Cc1cc(=O)[nH]c(N/N=C/c2ccc(C)o2)n1	5.46%
CC(C)N1CCc2c(sc(N)c2C#N)C1	1.48%

Structure (SMILES)	hERG current change (%, negative = inhibition) at 1uM
Cc1cccc(-c2nc(CN3CCCC(C(=O)NC4CCC(C)CC4)C3)c(C)o2)c1 (centres unmarked)	-10.2%
Cc1ccc2nc(NC(=O)CCn3c(=O)sc4ccccc43)sc2c1	16%
CN(C)C(=O)C(Sc1ccc(S(=O)(=O)N2CCCC2)cn1)c1ccccc1 (centres unmarked)	5.86%
CCCCOc1ccc(/C(O)=C(\C#N)c2nc3ccccc3[nH]2)cc1	0.173%
O=C(NNC(=S)NCc1ccccc1)c1cccc([N+](=O)[O-])c1	10.3%
O=C(Cn1cc([N+](=O)[O-])cn1)N1CCN(Cc2ccc3c(c2)OCO3)CC1	3.77%
Cc1ccc2nc(-c3ccccn3)[nH]c2c1.Cl	13.1%
N#Cc1c(-c2ccccc2)nc(SCc2cccc(Cl)c2)[nH]c1=O	3.79%
COc1ccc(C(=O)Nc2ccc3nc(N4CCCCC4)cc(C)c3c2)c(OC)c1	14.6%
CCN1CCN(c2ccc(NC(=O)c3cc4ccccc4cc3OC)cc2C)CC1	3.06%
O=C(Nc1ncccc1Cl)c1ccccc1F	10.3%
Clc1cccc(OCCN2CCOCC2)c1.O=C(O)C(=O)O	5.84%
COc1cc(C(C2=C(O)CC(C)(C)CC2=O)C2C(=O)CC(C)(C)CC2=O)cc(OC)c1OC (centres unmarked)	25%
COC(=O)C/C=C/[C@@H](C)[C@@H](/C=N/O[C@H](C)c1cn([C@@H]2COC[C@H]2O)nn1)NS(=O)(=O)c1ccc(C)cc1	7.67%
O=C(COc1ccc(Br)cc1)Nc1nnc(C2CC2)s1	3.65%
O=C1NN(c2ccccc2)C(=O)/C1=C/c1ccc(-c2cccc(C(=O)O)c2)o1	9.26%
Cc1ccccc1C1=NCC(=O)N(CC(=O)N2CCCCC2)c2sc(C)c(C)c21	2.96%
CCO[C@H]1OC(C(=O)N2CCN(Cc3ccccc3)CC2)=C[C@@H](c2cn(C(C)=O)c3ccccc23)[C@@H]1CCCO	-4.49%
C[N+](C)(C)CC(=O)N1CCN(c2ccc3ccccc3n2)CC1.[Cl-]	14%
CCn1ncc(Br)c1C(=O)Nc1ccc(F)c([N+](=O)[O-])c1	-1.76%
CC(OC(=O)CNC(=O)C12CC3CC(CC(C3)C1)C2)C(=O)Nc1ccc(S(N)(=O)=O)cc1 (centres unmarked)	13%
Cc1ccc(Nc2nc(N)nc(CSc3nccn3C)n2)c(C)c1	14.9%

Structure (SMILES)	hERG current change (%, negative = inhibition) at 1uM
Cc1cc(OCCn2cnc3ccccc3c2=O)cc(C(C)C)c1	5.76%
CC(=O)Nc1ccc(S(=O)(=O)N2CCN=C2SCc2ccc(C)cc2)cc1	10.4%
CCCCCn1c(SCC(=O)OCC)nc2cc(C(=O)NCc3ccco3)ccc2c1=O	12.8%
CCCn1c2ccccc2c2cnn(CC(=O)NCCCN3CCCCC3)c(=O)c21	1.47%
Cc1ccc(C2=C(c3ccc([N+](=O)[O-])cc3)C(=O)OC2)cc1C	-14.1%
c1ccc(Nc2ccccc2)cc1	7.9%
CC(=O)c1cccc(N=Nc2c(-c3ccccc3)[nH]n(-c3ccccc3)c2=O)c1	15.6%
COc1ccc(OC)c(CCNC(=O)Cn2ccc3cc(S(=O)(=O)N4CCCC4)ccc32)c1	19%
Cc1ccc(-c2ccc(=O)n(CCC(=O)N3CCN(c4cccc(C)c4)C(C)C3)n2)cc1 (centres unmarked)	8.76%
CCCCOc1ccc(N(CC(=O)NC(C)(C)C)C(=O)CCC(=O)Nc2nccs2)cc1	4.85%
Cc1ccccc1C(=O)NC(=S)NCCC1=CCCCC1	11.7%
CCN(CC(=O)Nc1ccc2c(c1)OCCO2)c1ccc(S(=O)(=O)N2CCOCC2)cn1	14.2%
O=C(O)c1cn(Cc2ccccc2)c2ccc(Cl)cc2c1=O	-84.4%
COCCn1c(N)c(C(=O)NCc2cccs2)c2nc3ccccc3nc21	6.75%
Cc1nc(N2CCC(C)CC2)c2c(C)c(C(=O)Nc3cc(F)ccc3C)sc2n1	8.33%
CS/C(=N\S(=O)(=O)c1cccs1)Nc1ccc(N2CCOCC2)cc1	9.03%
CCc1nnc(NC(=O)c2ccc(-c3ccc(F)cc3)o2)s1	7.51%
COc1ccccc1NCC(=O)N/N=C(\C)c1cccs1	9.31%
COc1cccc(CN2CCN(Cc3nc4c(s3)CCCC4)CC2CCO)c1 (centres unmarked)	-16%
CCN(CC(=O)N1CCCCCC1)S(=O)(=O)c1ccc(C)cc1	19.6%
